# Source: ChEMBL document CHEMBL1157539, “Thousands of chemical starting points for antimalarial lead identification” (Nature, 2010)
# In all, about 13,000 compounds were measured (“IFI”: median about 4, highest 2% from about 17 on). The list shows a part of the results.
# Assay: GSK_TCMDC: Inhibition Frequency Index (IFI). The number of non-kinase HTS assays where a compound showed > 50 % inhibition, expressed as a percentage of the number of such assays in which the compound was tested (-0 is zero)
# Type: functional
row,Structure (SMILES),IFI [%]
1,Cc1nc2ccc3ccc(CNc4ccc5c(c4)CN([C@@H](CCC(=O)O)C(=O)O)C5=O)cc3c2c(=O)[nH]1,3.73
2,CCCCC([C@@H](Cc1ccc2ccccc2c1)C(=O)N[C@H](C(=O)NC)C(C)(C)C)N(O)C=O (some centres not stated),0.71
3,COc1ccc(O)c(C(=O)c2cnc3c(c2)c(-c2ccc(F)cc2)c(C#N)c(=O)n3C)c1,2.65
4,O=C(Nc1cccnc1)c1cn(-c2ccccc2)nc1-c1cccs1,2.08
5,CC(NCCC1CCC(NC(=O)N[C@H](C)C(O)(c2ccccc2)c2ccccc2)CC1)c1cccc2ccccc12 (some centres not stated),11.6
6,O=C(N[C@@H](Cc1ccccc1)C(=O)NCCN1CCCCC1)c1ccc(O)c(-c2cccc(C(F)(F)F)c2)c1,2.19
7,Cc1cccc(Nc2nc(NCCCCN)nc3cc[nH]c(=O)c23)c1,8.33
8,COc1ccc(CNCc2cccc(-c3cccc(-c4nc5ccccc5[nH]4)c3)c2)cc1,7.55
9,CCCCCCCCCn1c(NCc2cc(Cl)ccc2O)nc2ccccc21,4.2
10,CCC(C(=O)Nc1ccccc1)n1nc(-c2ccc(C)c(S(=O)(=O)N3CCCCC3)c2)ccc1=O (configuration not stated),2.38
11,Cc1ccc(NC(=O)c2ccc(CN3CCCN(Cc4cccc(Cl)c4)CC3)cc2)cc1C,8.94
12,COc1cc2nc(NCCc3ccccc3)nc(N(C)Cc3ccccc3)c2cc1OC,11
13,CCN1CCC(N2CCC(C(=O)Nc3cccc(-c4cccc(Cl)c4)c3)CC2)CC1,4.76
14,Cc1nc(N)nc(N)c1CCCOc1ccccc1Cl,2.13
15,COc1ccc2nccc(N3CCC(SCCNCc4ccc5c(n4)NC(=O)CO5)C3)c2n1 (configuration not stated),3.7
16,COc1ccc2nccc(N3CCN(CCNCc4ccc5c(n4)NC(=O)CS5)CC3)c2c1,5.26
17,O=C(Cn1c(CCc2cccc(F)c2F)nc(=O)c2cccnc21)N(Cc1ccc(-c2ccc(C(F)(F)F)cc2)cc1)C1CCN(C2CCSCC2)CC1,11.1
18,COc1cccc(-c2cc(C(=O)Nc3ccc4[nH]c(-c5ccccc5)nc4c3)[nH]n2)c1,7.41
19,Nc1nc2c(c(=O)[nH]1)CN(S(=O)(=O)c1ccc(C(=O)N[C@@H](CCC(=O)O)C(=O)O)cc1)CC2,1.43

row,Structure (SMILES),IFI [%]
1,Cc1ccc(NC(=O)c2ccc3ncccc3c2)cc1OC1CCN(Cc2ccsc2)CC1,3.08
2,COc1ccc(NC(=O)c2ccc(-c3cccc(OCc4ccccc4)c3)cc2)cc1N1CCN(C)CC1,9.93
3,COC(=O)c1cccc(CNCc2cccc(-c3ccc(-c4nc5cccc(C)c5[nH]4)s3)c2)c1,5.88
4,Cc1cc(N/N=C/c2ccccc2[N+](=O)[O-])c2ccc(F)cc2n1,0
5,COc1ccc(NC(=O)c2ccc(OCCCCCCCOc3ccc(C(=O)Nc4ccc(OC)c(N5CCN(C)CC5)c4)cc3)cc2)cc1N1CCN(C)CC1,9.09
6,CCOCCCNc1sc(S(=O)(=O)c2ccccc2)nc1S(=O)(=O)c1ccc(C)cc1,2.33
7,CC(C)[C@H]1CC[C@H](C)C[C@@H]1OC(=O)N[C@@H](Cc1ccc(O)cc1)C(=O)NC1CCN(Cc2ccc(OCCCN(C)C)cc2)C1 (some centres not stated),4.29
8,CCOc1ccc(Nc2ccc3nonc3c2S(=O)(=O)Nc2ccc(OCC)cc2)cc1,0.76
9,O=C(Nc1ccccc1Br)N[C@@H]1CCN(c2ccnc3ccccc23)C1,5.15
10,CCOc1ccc(C(=O)N2CCOC(CCN3CCC(c4ccccc4)CC3)(c3ccc(Cl)c(Cl)c3)C2)cc1 (configuration not stated),7.38
11,CC(C)CN1CCN(c2nc(C#N)c3c(c2C(=S)NC2CCCCC2)CC(C)(C)OC3)CC1,2.1
12,Cc1ccccc1OCCCc1c(C)nc(N)nc1N,0.77
13,Cc1cc(-c2ccc3c(c2)CCN(CCC2CCC(NC(=O)/C=C/c4ccc(F)cc4)CC2)CC3)on1 (configuration not stated),6.47
14,O=C(Nc1ccc(Br)cc1)N(CCN1CCOCC1)CC(O)COc1ccc(Cl)c(F)c1 (configuration not stated),2.11
15,N=C(N)NC(=O)Nc1cc(Cl)c(Cl)c(Cl)c1,2.96
16,Cc1cccn2c(=O)c3cc(C(=O)NC4CCCCC4)c(=N)n(CCCn4ccnc4)c3nc12,-0
17,COc1ccc(CN(C)CCCc2ccc(NC(=O)c3cccc4c(=O)c5cccc(F)c5[nH]c34)cc2)cc1OC,12.9
18,O=C(c1ccccc1F)N(Cc1ccc(Cl)cc1)c1ccccn1,0
19,NCCCNc1nc(Nc2cccc(C(N)=O)c2)c2c(=O)[nH]ccc2n1,-0

row,Structure (SMILES),IFI [%]
1,Cc1[nH]c(C)c(-c2ccc(Oc3ccc(F)cc3)cc2)c(=O)c1Br,3.85
2,Oc1ccc(CCNCCCCCNCCCc2ccc(Cl)cc2)cc1O,6.25
3,COc1cc(N(Cc2ccc(F)cc2)C(=O)c2ccc(-c3ccccc3)cc2)ccc1OCCN1CCCC1,5.04
4,CN(C)C(=O)CC(=O)NCc1c(Cl)cccc1Cl,-0
5,CCOc1ccc2c(=NN=Cc3ccc(OC)c(OC)c3)cc(C)[nH]c2c1,4.29
6,CC(C)c1ccc(NC(=O)Nc2ccc(CCNCCCc3ccccc3)cc2)cc1,3.62
7,O=C(/C=C/c1ccc(Cl)c(Cl)c1)NC1CCN(Cc2ccc(O)cc2)CC1,0.67
8,CCNc1cc(C(=O)N[C@@H](Cc2ccc(F)c(F)c2)[C@H](O)CNC2CCCCC2)cc(N2CCCCS2(=O)=O)c1,2.1
9,Cc1cc(=NN=Cc2ccccc2F)c2ccccc2[nH]1,3.62
10,CCC(COCc1ccc(Cl)cc1)N(C)CCN(C)C(CC)COCc1ccc(Cl)cc1 (configuration not stated),19.6
11,COc1ccc(CN(C)Cc2ccc(NC(=O)c3cccc4c(=O)c5cccc(C)c5[nH]c34)cc2)cc1OC,1.57
12,O=C(Nc1ccc(-c2cccc(-c3nc4cc(F)ccc4[nH]3)c2)cc1)c1cnn2cccnc12,1.92
13,O=C(Nc1ccc(C(=O)Oc2ccc3ccccc3c2)cc1)N[C@@H](Cc1ccc(O)cc1)C(=O)NC1CCN(Cc2ccc(O)cc2)C1 (some centres not stated),8.05
14,COc1ccc2nccc(N3CCC(O)(CCNCc4ccc5c(n4)NC(=O)CS5)CC3)c2n1,2.9
15,N#CCc1ccc(Nc2nccc(Nc3ccc(Oc4ccccc4)cc3)n2)cc1,9.86
16,c1ccn2c(Sc3ncnc4sccc34)ncc2c1,4.17
17,Cc1ccc(OCCCCON2C(=N)N=C(N)NC2(C)C)cc1C,3.57
18,Cc1cc(NC(=O)Nc2ccc(C#N)cc2)c2ccccc2n1,6.77
19,CC1(C)N=C(N)N=C(N)N1c1cc(Cl)c(Cl)cc1Cl,0.85
